# Data: the supplement of paper PMC3334620
# Over roughly 33,000 sequences, “E-score (-0.5 to 0.5)” has its median near -0.012; the highest 2% begin near 0.29. The list shows a part of the results.
# Target: T1, Ybr033w (UniProt P38073)
# T1 sequence: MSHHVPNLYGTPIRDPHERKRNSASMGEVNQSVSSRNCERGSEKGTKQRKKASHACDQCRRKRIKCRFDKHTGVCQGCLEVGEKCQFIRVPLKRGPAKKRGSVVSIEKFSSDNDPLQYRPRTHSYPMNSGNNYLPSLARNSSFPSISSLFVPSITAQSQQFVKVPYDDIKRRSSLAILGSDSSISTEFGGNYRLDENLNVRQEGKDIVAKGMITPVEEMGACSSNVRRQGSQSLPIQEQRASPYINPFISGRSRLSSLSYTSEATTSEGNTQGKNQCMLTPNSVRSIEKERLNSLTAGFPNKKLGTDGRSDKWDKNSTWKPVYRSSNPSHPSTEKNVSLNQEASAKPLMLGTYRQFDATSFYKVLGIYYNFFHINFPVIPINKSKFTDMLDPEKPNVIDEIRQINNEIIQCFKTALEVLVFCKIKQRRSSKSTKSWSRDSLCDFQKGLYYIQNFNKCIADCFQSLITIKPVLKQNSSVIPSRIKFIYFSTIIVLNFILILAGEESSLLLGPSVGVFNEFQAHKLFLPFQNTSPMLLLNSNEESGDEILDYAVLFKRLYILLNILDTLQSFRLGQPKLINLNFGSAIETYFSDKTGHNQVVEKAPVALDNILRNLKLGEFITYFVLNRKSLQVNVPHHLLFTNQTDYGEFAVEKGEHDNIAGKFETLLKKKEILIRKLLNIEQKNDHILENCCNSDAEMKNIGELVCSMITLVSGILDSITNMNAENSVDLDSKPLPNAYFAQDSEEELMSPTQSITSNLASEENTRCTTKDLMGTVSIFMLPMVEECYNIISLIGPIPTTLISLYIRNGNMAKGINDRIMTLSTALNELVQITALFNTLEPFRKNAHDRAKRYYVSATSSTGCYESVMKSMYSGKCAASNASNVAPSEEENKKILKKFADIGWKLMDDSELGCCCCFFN
# Test: PBM E-score (8-mer binding enrichment) (E-score (-0.5 to 0.5)); higher = stronger / more preferred TF binding; most listed sequences are background and not binding sites
# Details: protein concentration: 200 nM; construct: GST-full length
# Outline: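 Bound GST-tagged yeast transcription factors, applied at about 100-200 nM to double-stranded universal all-10-mer Agilent arrays, were detected with fluorescent anti-GST. Scans were normalised with masliner. A modified Wilcoxon-Mann-Whitney statistic, the E-score, was assigned to each ungapped eight-base word pooled with its reverse complement by the Universal PBM Analysis Suite.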
row,Sequence,PBM E-score
1,AAGTAAGA,0.0371
2,GACAGGAC,0.022
3,ACTCATCG,-0.0961
4,GGCCAGGA,-0.14
5,CGTGTCCC,-0.313
6,CATAAATG,-0.0505
7,AACTTACA,0.13
8,GCTAACGA,-0.00288
9,ACACCCAT,0.0255
10,CATCTTTC,0.108
11,GTAGCCTA,-0.188
12,CGACATTA,0.229
13,CGTAAAAC,-0.0532
14,GCATTGAA,0.0889
15,GTAGCGAC,-0.0936
16,AGGTAGTC,-0.165
17,GGCCTAGA,-0.105
18,AGCCAGAC,-0.0118
19,ACTCTGAC,-0.212
20,GGTCCATA,-0.121
21,ATCCTGGA,0.0928
22,ATGATTTC,0.162
23,GTGAAACA,0.0868
24,CCCCCAGG,-0.273
25,AGAGACAA,-0.0571

row,Sequence,PBM E-score
1,TGAGCTAA,0.0551
2,CAAACTCC,0.22
3,GATAGGCA,0.03
4,GGAGCTAA,-0.0436
5,AACATGGT,0.0162
6,TATGAAAA,0.225
7,GAACTGGA,0.142
8,ATGGTCAG,0.161
9,CGCGTGAA,-0.0731
10,AGGATTAA,0.361
11,GGACGCCA,-0.319
12,CATAGGGG,-0.211
13,GCCGACCA,-0.254
14,AGACTACT,0.171
15,ACAAATGA,0.0836
16,AGGTAAGG,-0.119
17,CGAGCCGC,0.105
18,ATCCTAAC,0.142
19,CTTAGCGA,0.0522
20,GCGTTGCC,-0.188
21,AGCGCCTG,-0.135
22,ACTTACAC,-0.0235
23,GACCATTA,0.2
24,AATGAGTC,-0.0703
25,CAATGTCG,0.0113

row,Sequence,PBM E-score
1,AACAAGCG,0.178
2,CCTTACAC,-0.00654
3,TACACAGA,0.116
4,TACCGAAA,0.0108
5,AAGAAGCT,0.0712
6,ATGCTTAG,0.131
7,AGAGCTGA,0.0192
8,AGAGATTG,0.125
9,AGTCGGCA,-0.0305
10,GCGCAGCC,-0.249
11,AGGCGGAG,-0.0377
12,AAGCTCGG,0.0182
13,CAATATTA,0.27
14,CTCCTAAA,-0.0494
15,TAGGAAAA,0.229
16,ACCGCTTA,-0.0969
17,GACTTGAC,-0.108
18,CCCTGTCC,-0.267
19,AATGAAGC,-0.0361
20,CCGTCTTA,-0.166
21,CGAATGTA,-0.0524
22,AATCGCTG,-0.0821
23,ATGTAATC,0.112
24,AATCCCCC,-0.366
25,GCGGCAAA,-0.0322

row,Sequence,PBM E-score
1,CTGCAAAC,0.0506
2,CGCCATTA,-0.0782
3,CAGCAAGA,0.0995
4,TCTACAAA,0.0828
5,ACTTGAGA,0.158
6,AATGTAGT,0.189
7,AATCTTAT,0.216
8,AACATGTA,0.269
9,ATCAATTA,0.365
10,AGCAATAC,0.0784
11,ACTTTCCG,0.0609
12,AGGTGGCG,-0.157
13,ACCTTGGG,-0.04
14,TGTGTGAA,0.0316
15,GAGCCGGC,-0.0356
16,TCATGAAA,0.00693
17,AGTTTATG,0.2
18,ATGTGTCG,-0.0937
19,CAGTTCGG,-0.0492
20,CTAAGATA,0.0878
21,CACCTCTC,-0.283
22,CGTGAGCC,-0.176
23,GTTTTCGA,0.025
24,GGGGTGGA,-0.234
25,AACGAAAG,0.113

row,Sequence,PBM E-score
1,CACAAATC,0.113
2,CATTGGTC,-0.109
3,AAAGTTCC,0.132
4,AAGTCCCA,-0.154
5,AATATTCA,0.226
6,CAACAGTA,0.0739
7,CTGAGTGA,0.131
8,AGTAGATC,0.164
9,GGGGCTCA,-0.219
10,ACCGACAA,0.0577
11,AAAAAGCG,0.112
12,GCTGTCGA,-0.0632
13,AAAGAAAT,0.25
14,CCCTATCC,-0.24
15,CACTTACA,0.0826
16,CACTGCTG,-0.111
17,CATTTGAG,-0.015
18,ATTCCCCG,-0.0486
19,AATTTCAT,0.224
20,CGGGACCA,-0.215
21,CTCGGGTA,-0.109
22,ACAGGTCA,-0.0986
23,AAGACCTA,-0.122
24,ACAGCGCC,-0.159
25,AATACGGG,-0.102

row,Sequence,PBM E-score
1,CGCCCGTC,-0.0011
2,GTCGGAAA,0.282
3,GTGTACTA,0.181
4,GTAAGGTA,0.127
5,ATTCTACG,-0.0146
6,GCGCCGCC,-0.276
7,ATGCCCTG,-0.0604
8,CAAGCTTG,-0.0645
9,CAGTTCTC,-0.0601
10,GATGCGTA,-0.0578
11,AGAGGAAT,-0.012
12,ACATAATC,0.205
13,CTATCTCA,0.11
14,AGACTTTC,-0.05
15,AAACCCCC,-0.409
16,ATGAGCCG,-0.166
17,GAGTTCCC,-0.201
18,AGAGTATA,0.0377
19,ACCTTCTG,0.194
20,CATATTCG,0.103
21,GCGTATAA,0.0124
22,GTAGACAA,0.08
23,ACATCAAG,0.165
24,CTGATCCA,0.0678
25,ATCTATAG,0.125

row,Sequence,PBM E-score
1,GAGTGCTA,0.0646
2,AACTCCGG,0.109
3,CGCGCTCC,-0.19
4,AGTTTGTC,0.0278
5,AAATCAAA,0.233
6,TGAACCAA,0.273
7,ACGGTATG,-0.0502
8,AGTTACCG,0.0592
9,ATCGCTAC,0.0525
10,AACAAGCC,-0.0425
11,AAAGAGCG,0.0348
12,GCCCCACA,-0.333
13,GCGGGTCC,-0.323
14,CGTCCTTA,-0.116
15,GCTATTCC,-0.0267
16,AATATAGG,0.262
17,CGTGGGAC,-0.188
18,CTGGCTCA,-0.0348
19,TCGAACAA,0.138
20,GAAGGAGC,-0.296
21,ACATCTGG,0.0399
22,CCAGGGCG,-0.297
